Assay results taken from the supplement of paper PMC3334620.
Over roughly 33,000 sequences, “E-score (-0.5 to 0.5)” has its median near -0.01; the highest 2% begin near 0.26. The list shows a part of the results.

target: Ste12 (UniProt P13574); assay: PBM E-score (8-mer binding enrichment) (E-score (-0.5 to 0.5)); higher = stronger / more preferred TF binding; most listed sequences are background and not binding sites; details: protein concentration: 200 nM; construct: GST-DNA-binding domain
Summary of the method: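 Bound GST-tagged yeast transcription factors, applied at about 100-200 nM to double-stranded universal all-10-mer Agilent arrays, were detected with fluorescent anti-GST. Scans were normalised with masliner. A modified Wilcoxon-Mann-Whitney statistic, the E-score, was assigned to each ungapped eight-base word pooled with its reverse complement by the Universal PBM Analysis Suite.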

Sequence | PBM E-score
ACCCGTTG | -0.178
AGACGTTG | 0.0686
CCTCTCAG | -0.133
GACTCCGC | -0.0539
GGCGCTAA | 0.0659
CTTTGCAA | 0.073
ACTTTAGG | -0.0109
AAATCGAT | 0.0768
GTCGGGCA | -0.0518
ACCTAGAG | -0.0674
AGTAGTTC | 0.1
CAAGCGCC | -0.00833
CACAGGAC | -0.0988
AGGGTTGC | 0.0231
ATTATTGA | 0.166
GAGCCTAC | 0.0221
ATGAAACG | 0.484
CCCCGTAA | 0.0581
CCAGCCAC | -0.0775
AAATGTTG | 0.0289
TACATGGA | 0.00432
AGAATGCT | -0.0802
GAAAAGTC | 0.0583
AAGAGAGG | -0.174
CCTCTTAG | -0.13

Sequence | PBM E-score
CTGGTTAA | 0.177
GGAATAAC | -0.0739
ATGTGGAA | 0.0686
CCCTCCGC | -0.0697
AATACACA | 0.203
CGGCCCAC | -0.181
GGCATCGA | -0.165
AGACGCCG | 0.11
TAGGGATA | -0.0286
GAAGCCGA | 0.0515
ACTTCAGA | 0.113
TAGCGCCA | -0.116
CAACTGAG | 0.121
GACAACCA | -0.0266
CGGTCAAC | 0.143
AACCGGTG | -0.137
ACGTGTGA | -0.0755
ATAACGCC | 0.0996
ACTGTTCG | 0.0638
ATCGCGTA | -0.176
TAAACGTA | -0.115
AACTCTTC | -0.196
AGACGAGG | -0.16
AGTAATTA | 0.0978
CCTCCTTA | -0.0904

Sequence | PBM E-score
ACCTATGG | -0.219
CTATCCCA | 0.0173
GAGAAACC | 0.123
CACTCGCG | 0.127
GCTGGGCC | -0.186
CGGGAATC | -0.119
TATTCACA | 0.193
TAGTTTGA | 0.0916
CTCGTACA | -0.128
TCCATGAA | 0.0413
CGAGCAAC | -0.18
GGTTACCA | 0.0908
ACGGCCAT | -0.107
GCCCCCGC | -0.095
GACGCTGA | -0.039
AGCAAGCA | -0.0749
AACTGTGT | 0.153
GCTTGACA | 0.0364
CTGTTAAG | -0.0711
ATTGTTAA | 0.261
CACCGCTA | -0.0115
CGGCCAAA | 0.0355
GTCGATTA | 0.00079
TCACGTAA | 0.0317
CCGTGTTA | -0.0178

Sequence | PBM E-score
ACCTTTAG | -0.0123
ACTAAGGC | -0.123
ATGTACTA | -0.0888
CGTCACTA | 0.0258
CCAATCAG | -0.183
AGCGGCAG | -0.00436
CCTGTTAA | -0.0279
ATAGAACA | -0.0444
AAAGGTCT | 0.0318
AGAGTGTA | -0.0197
TAGAGGAA | -0.14
ATCACGCA | -0.0696
AAAGCGCT | 0.0221
ACGCGGAT | 0.0567
ATTTCCCG | 0.158
CGTCGGGA | 0.0845
CTGGTCGC | 0.0843
ATTGGCAA | 0.219
GTAGCGGA | -0.0717
AAAAACAA | 0.251
CGTCCTCA | -0.128
GGCTGAGA | 0.0183
ATGGCGAA | 0.035
ATGCAGAG | -0.209
ACCCCCTC | -0.154

Sequence | PBM E-score
CCATGGTC | -0.137
GACAACTC | 0.103
CACGGCTG | -0.0977
GTCCATCA | -0.0824
GTAAGGCA | -0.0942
AGGTCCCG | -0.00172
ATATGGAG | 0.0774
GATCCCGA | -0.09
CCCCCGGC | -0.182
AGCTGGGG | -0.136
CAGCCCCC | -0.189
CTGGGAGA | -0.123
ACGAATTC | -0.0964
CGCACCAA | 0.0724
GGGATCGA | 0.166
ACCGTACC | -0.127
GTACCGAA | 0.0964
ATATACAC | 0.152
AACAACGG | -0.0786
AAAGGGGT | -0.0827
CCTACTTC | -0.0902
CTGCATCA | -0.0245
CCGCTCAA | -0.0613
GCCTCCGA | -0.208
ATCAGCGC | 0.0161

Sequence | PBM E-score
AGACACTG | -0.146
CGTAGTAC | -0.118
AGGGGAAG | -0.0544
CCTGTGTC | 0.0718
GATCGGGA | 0.0339
CTAAATAG | 0.143
AGTCAATG | -0.0167
CCTCAGTA | -0.161
AATCATTA | 0.177
CCAGTTCA | 0.0556
GAGGATAC | -0.259
ACTTGAAT | 0.0108
ACCAGCCG | -0.111
CGTAGTCA | -0.237
TACAGAAA | 0.177
CGACCTCC | 0.0465
CAGGTGGC | -0.0169
ATAGTTGC | 0.12
CGACGTGA | 0.0143
ATCTCAAG | 0.0665
AGGCTTGA | 0.041
GGAGGAAC | -0.163
CGGTCAAA | 0.156
ATAAGGCG | 0.0828
AGCTCAAA | 0.071

Sequence | PBM E-score
CAAGACTC | -0.0925
CCGGTCAA | 0.0375
CGGCACCC | -0.0925
CATCGCGA | -0.0289
AGTAGGCA | 0.187
ACGACTCG | -0.152
TCACGACA | -0.103
CCTCTCCG | -0.263
AGTGACAA | -0.0488
CCCAAAGC | -0.134
TTACGAAA | 0.194
AAGCCATT | -0.0192
AACTATTG | 0.147
AGTAACCC | -0.0499
ATAGCTTC | -0.0528
GATACTAC | -0.0702
CGGTAATA | 0.156
CTCGGGTC | -0.00919
AGGAGGCC | -0.198
GAATATAA | 0.161
CTAGAAAC | 0.124
GGTGCCGA | 0.00601
ACGGTCGG | 0.00084
TGATCGCA | -0.196
AAGAAAGA | 0.237

Sequence | PBM E-score
AATGCCCT | -0.216
ATCTGACA | 0.116
AGCTCTCG | -0.0135
CCATGTAG | -0.244
CCCTCAAC | -0.174
CGATATCG | 0.159
CAGGTAAC | -0.142
CGTATCTA | 0.0436
ACAGAAAC | 0.167
AGGAGTGC | -0.0613
GAAACCTC | 0.318
AGATGAGG | -0.127
CCCAATAG | 0.00964
AGCGTTTC | 0.294
GGTAGGTA | -0.177
GCGTCCGA | -0.0538
CTAAGATC | -0.0183
ATGGGCGG | 0.188
AATAATTA | 0.24
AAGTATGG | 0.0994
ATTAGTAC | 0.0513
ATCCTGTG | 0.019
GATAGACA | -0.162
CCAGTCGG | -0.0196
TGACCTAA | 0.0508

Sequence | PBM E-score
AGGTGACT | -0.117
CTTTCCGC | 0.0155
CATTAGCA | 0.13
AGGGGGCC | -0.177
GCAGATCC | 0.0135
CCACATTC | -0.00143
ACGTAGCA | -0.13
AAGGTTAA | 0.122
CGACGACC | 0.0972
CGCCTTCC | -0.127
AAACATTC | 0.12
GGCGGATA | 0.044
AGATTAGG | -0.102
GCCAACCA | -0.082
CGTGCGTA | -0.0557
AGCCGGAA | 0.089
ATTCCAAC | 0.00583
GCCCGGCC | -0.208
CGAGCACA | -0.0116
